Experiments:
Human BMP1-1 = target: T1, Human BMP1-1 (human, UniProt P13497-2 121-730, limits assumed); experiment: cell-based or functional assay
T1 sequence (looked up): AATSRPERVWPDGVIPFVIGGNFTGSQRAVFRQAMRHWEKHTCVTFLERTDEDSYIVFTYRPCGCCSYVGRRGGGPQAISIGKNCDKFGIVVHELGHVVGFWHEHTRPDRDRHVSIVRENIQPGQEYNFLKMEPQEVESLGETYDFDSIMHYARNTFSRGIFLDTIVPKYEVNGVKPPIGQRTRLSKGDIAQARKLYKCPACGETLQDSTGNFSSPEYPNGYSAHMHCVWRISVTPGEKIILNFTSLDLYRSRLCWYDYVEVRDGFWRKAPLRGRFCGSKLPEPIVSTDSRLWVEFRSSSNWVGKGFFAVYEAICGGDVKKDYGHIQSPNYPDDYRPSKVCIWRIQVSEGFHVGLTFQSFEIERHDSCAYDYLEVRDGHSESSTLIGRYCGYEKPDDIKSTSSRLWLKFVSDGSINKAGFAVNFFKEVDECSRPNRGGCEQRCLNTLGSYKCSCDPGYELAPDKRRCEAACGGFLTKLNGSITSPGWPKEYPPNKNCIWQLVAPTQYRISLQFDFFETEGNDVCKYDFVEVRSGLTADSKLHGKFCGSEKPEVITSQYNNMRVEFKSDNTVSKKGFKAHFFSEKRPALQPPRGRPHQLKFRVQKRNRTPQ

Cyno TLL1 = target: T2, Cyno TLL1 (cyno, UniProt A0A1D5QYV0 148-1013 (rhesus entry)); experiment: cell-based or functional assay
T2 sequence: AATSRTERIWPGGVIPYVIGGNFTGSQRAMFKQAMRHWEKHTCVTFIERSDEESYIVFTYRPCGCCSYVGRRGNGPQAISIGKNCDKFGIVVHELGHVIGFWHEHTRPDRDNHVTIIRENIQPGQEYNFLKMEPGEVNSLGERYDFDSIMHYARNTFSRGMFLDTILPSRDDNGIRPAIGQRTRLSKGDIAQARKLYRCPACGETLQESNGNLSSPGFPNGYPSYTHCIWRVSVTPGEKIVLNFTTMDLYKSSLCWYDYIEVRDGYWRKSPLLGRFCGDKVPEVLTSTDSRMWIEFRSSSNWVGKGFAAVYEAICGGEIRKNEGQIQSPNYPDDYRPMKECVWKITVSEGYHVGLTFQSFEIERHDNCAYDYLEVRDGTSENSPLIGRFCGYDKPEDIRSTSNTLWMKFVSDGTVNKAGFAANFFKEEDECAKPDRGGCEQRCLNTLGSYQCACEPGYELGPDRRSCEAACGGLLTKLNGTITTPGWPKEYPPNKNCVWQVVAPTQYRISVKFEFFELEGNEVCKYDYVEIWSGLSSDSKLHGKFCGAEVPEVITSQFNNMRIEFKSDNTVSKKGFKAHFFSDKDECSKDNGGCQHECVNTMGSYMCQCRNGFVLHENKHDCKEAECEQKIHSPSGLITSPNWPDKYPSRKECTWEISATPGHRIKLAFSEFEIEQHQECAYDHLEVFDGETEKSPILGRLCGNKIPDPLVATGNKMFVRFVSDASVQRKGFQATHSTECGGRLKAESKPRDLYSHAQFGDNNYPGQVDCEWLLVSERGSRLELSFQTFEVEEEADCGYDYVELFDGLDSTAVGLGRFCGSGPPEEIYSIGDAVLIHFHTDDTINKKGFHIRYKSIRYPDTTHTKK

Human TLL2 = target: T3, Human TLL2 (human, UniProt Q9Y6L7 150-1015, limits assumed); experiment: cell-based or functional assay
T3 sequence (looked up): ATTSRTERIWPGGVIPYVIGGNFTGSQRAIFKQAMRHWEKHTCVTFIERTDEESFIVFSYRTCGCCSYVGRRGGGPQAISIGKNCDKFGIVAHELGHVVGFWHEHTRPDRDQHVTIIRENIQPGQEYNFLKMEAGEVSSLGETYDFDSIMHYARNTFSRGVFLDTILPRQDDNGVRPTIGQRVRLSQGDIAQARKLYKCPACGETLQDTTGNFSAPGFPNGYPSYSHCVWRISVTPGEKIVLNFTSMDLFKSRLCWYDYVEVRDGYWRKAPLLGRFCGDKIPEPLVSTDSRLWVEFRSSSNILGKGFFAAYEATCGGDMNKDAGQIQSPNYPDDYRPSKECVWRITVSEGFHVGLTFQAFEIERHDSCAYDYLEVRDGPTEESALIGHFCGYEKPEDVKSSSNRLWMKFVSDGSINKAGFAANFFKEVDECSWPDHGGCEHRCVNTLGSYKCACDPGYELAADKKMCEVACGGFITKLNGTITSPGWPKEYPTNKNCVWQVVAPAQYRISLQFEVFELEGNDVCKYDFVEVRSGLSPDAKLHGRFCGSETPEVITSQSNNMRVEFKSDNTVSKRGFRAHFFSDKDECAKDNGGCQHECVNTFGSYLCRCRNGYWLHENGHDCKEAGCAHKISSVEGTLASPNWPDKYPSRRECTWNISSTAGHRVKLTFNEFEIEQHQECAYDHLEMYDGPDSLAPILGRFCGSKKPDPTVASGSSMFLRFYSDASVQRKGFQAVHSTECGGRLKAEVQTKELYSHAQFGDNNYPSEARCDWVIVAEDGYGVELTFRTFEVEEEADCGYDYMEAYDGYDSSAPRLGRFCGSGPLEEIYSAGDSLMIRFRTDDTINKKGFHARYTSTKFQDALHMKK

[1] = target: T4, Human TLL2 CD+CUB1 truncated antigen (human, UniProt Q9Y6L7 150-463, limits assumed); experiment: SPR, mAb captured on protein A/G, HBS-EP
T4 construct: domain: CD+CUB1
T4 sequence (looked up): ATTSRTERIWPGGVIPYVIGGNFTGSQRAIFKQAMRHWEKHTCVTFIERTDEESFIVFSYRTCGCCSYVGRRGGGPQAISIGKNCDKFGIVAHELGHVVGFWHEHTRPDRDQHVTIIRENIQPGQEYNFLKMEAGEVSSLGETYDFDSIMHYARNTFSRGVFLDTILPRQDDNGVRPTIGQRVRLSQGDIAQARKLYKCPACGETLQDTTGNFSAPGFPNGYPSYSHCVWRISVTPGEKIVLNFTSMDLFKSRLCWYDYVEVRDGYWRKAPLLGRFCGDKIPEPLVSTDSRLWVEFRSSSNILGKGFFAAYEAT
Experimental: Both antibodies 13Y039-4B06-4334 and 13Y039-3E07-2944 and the reverse chimeric antibodies were evaluated for binding to human TLL2 CD+CUB1 and mouse BMP1 CD+CUB1 truncated antigens by SPR on a BIACORE T200. Protein A/G was immobilised to a CM5 sensor chip via amine coupling and the antibodies were captured to the protein A/G surface. The antigens were passed over the captured antibody at various concentrations. The measured affinities to human TLL2 CD+CUB1 are shown in Table 2 and the measured affinities to mouse BMP1 CD+CUB1 are shown in Table 3.

B1: 13Y039-3E07-2944 (antibody, human IgG1, kappa)
heavy: QVQLQQWGAGLLKPSETLSLTCAVYGGSFFGDYWSWIRQPPGKGLEWIGEIDWSGATNYNPSLKSRVTISVDTSKNQFSLKLSSVTAADTAVYYCARGGSKELSFDIWGQGTMVTVSS[gap - human IgG1 constant region with L235A G237A (EU numbers)]
light: DIQMTQSPSSLSASVGDRVTITCQASQDIANYLNWYQQKPGKAPKLLIYDASNLETGVPSRFSGSGSGTDFTFTISSLQPEDIATYYCQQADTLPFTFGGGTKVEIKRTVAAPSVFIFPPSDEQLKSGTASVVCLLNNFYPREAKVQWKVDNALQSGNSQESVTEQDSKDSTYSLSSTLTLSKADYEKHKVYACEVTHQGLSSPVTKSFNRGEC
notes: Fully human IgG1 LAGA, kappa; HEK expressed; also called HEK-expressed 13Y039-3E07-2944
Human BMP1-1
  IC50 (read off the curve): ~0.4 nM
Cyno TLL1
  IC50, FRET enzyme activity, 750 pM biotinylated cynoTLL-1: 0.1 nM
Human TLL2
  IC50, FRET enzyme activity, 500 pM huTLL-2: ≥ 398 nM
[1]
  binding result: no binding
